# In the supplement of paper PMC3334620:
# Whole data set: some 33,000 sequences, median “E-score (-0.5 to 0.5)” near -0.054, cut for the highest 2% near 0.39. This is one part of the list.
# Target: Ylr278c (UniProt Q05854)
# Assay: PBM E-score (8-mer binding enrichment) (E-score (-0.5 to 0.5)); higher = stronger / more preferred TF binding; most listed sequences are background and not binding sites
# Details: protein concentration: 200 nM; construct: GST-DNA-binding domain
# Summary of the method: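 Yeast transcription factors carrying a GST tag, as full-length proteins or DNA-binding domains, were produced by PURExpress in vitro transcription/translation. About 100-200 nM protein was applied to universal all-10-mer Agilent arrays, double-stranded by primer extension on fresh or once-stripped slides. Bound protein was detected with fluorescent anti-GST, and scans were normalised with masliner. The Universal PBM Analysis Suite gave each ungapped eight-base word, pooled with its reverse complement, an E-score, a modified Wilcoxon-Mann-Whitney statistic.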
row,Sequence,PBM E-score
1,GACTCTTA,-0.0113
2,CCCTGAAC,0.0392
3,CTCTGAGA,-0.29
4,ATGTCTTG,0.117
5,AAGCGAAG,-0.0624
6,AGTGAATG,0.155
7,ACAATCAT,-0.042
8,GCGCAAGA,0.0388
9,TACGATCA,-0.19
10,CGTGTATA,-0.00214
11,ATAGCGCA,-0.103
12,AATCATCA,-0.153
13,CATGGAAA,0.0561
14,ACAGCAGG,0.0378
15,GAGTGGGA,-0.0135
16,CCCATTAA,-0.317
17,CCACGCGG,0.204
18,GAAGCATA,-0.155
19,GCTATTTA,-0.0413
20,ATGACGGA,0.279
21,ACGCACTG,-0.0303
22,AAAAGACA,0.0411
23,CTGTTTAC,-0.172
24,ACTCTGCC,-0.253
25,ACCGAGAA,0.109

row,Sequence,PBM E-score
1,CTCCTAAC,-0.157
2,AATTCATA,-0.14
3,CCAGTTAA,-0.0482
4,GTTATCCA,0.0894
5,CCATAGAC,-0.248
6,GACCGTCC,0.154
7,AACACGTA,-0.019
8,AACGTAGG,-0.206
9,CCAAACAG,-0.257
10,GAGTAGAC,-0.0763
11,CAAAGCTC,0.0257
12,GAGCGCTA,-0.0438
13,GCCAGGAA,-0.15
14,AGTGACAT,-0.025
15,AGATTCCT,-0.257
16,GCCTATAC,-0.109
17,CAAGTAAG,-0.235
18,AAACGATT,0.0105
19,CAGCGAGG,-0.178
20,GCATCTGA,-0.182
21,CCATTTGC,0.0398
22,ACGAACCA,-0.125
23,GGTCACGA,-0.143
24,CGGCAGAA,0.204
25,TGGAACCA,-0.0348

row,Sequence,PBM E-score
1,CAAGGTGA,-0.17
2,ATAACCGA,0.0895
3,GCAGTGCC,-0.17
4,ATATGTCA,-0.0665
5,TCACAAGA,-0.163
6,ATGCGTAC,-0.0495
7,GTTTGCGA,-0.0942
8,CGCCGAAC,0.315
9,CGCAGCCA,-0.00269
10,GAGTGAGA,0.0798
11,ATAGCCAT,-0.115
12,AGTTGGGA,-0.192
13,CTACCAGA,0.0262
14,ACGACACA,-0.274
15,ATAGCTCG,-0.0396
16,CTGATGAA,-0.33
17,AACCTGTC,-0.114
18,ATTCGACC,-0.155
19,CGCGTTCC,0.198
20,TGTAATAA,-0.0936
21,AATGAAGC,-0.148
22,CCCTGTCC,-0.128
23,GACTTGAC,-0.059
24,CCGTCTTA,-0.0532
25,GCGGCAAA,0.238

row,Sequence,PBM E-score
1,AATCCCCC,0.0792
2,ATGTAATC,-0.125
3,AATCGCTG,0.0495
4,CGAATGTA,0.0699
5,CAGCAAGA,-0.136
6,CGCCATTA,-0.0002
7,CTGCAAAC,-0.201
8,CTCCTAAA,-0.229
9,CAATATTA,0.0196
10,TAGGAAAA,-0.132
11,ACCGCTTA,-0.109
12,AAGCTCGG,0.256
13,AGAGATTG,-0.112
14,AGAGCTGA,-0.229
15,ATTGTTCC,0.266
16,AGGCGGAG,0.39
17,AGTCGGCA,0.202
18,GCGCAGCC,0.0388
19,TACCGAAA,0.161
20,TACACAGA,-0.219
21,CCTTACAC,-0.0955
22,AACAAGCG,0.145
23,ATGCTTAG,-0.155
24,AAGAAGCT,-0.0842
25,CTTAGCGA,-0.0726

row,Sequence,PBM E-score
1,GCGTTGCC,0.0752
2,GACCATTA,-0.00105
3,ACTTACAC,-0.145
4,AGCGCCTG,0.0474
5,CAATGTCG,0.0163
6,AATGAGTC,0.0416
7,GGACGCCA,-0.11
8,GCCGACCA,0.149
9,CATAGGGG,-0.0405
10,CGAGCCGC,0.265
11,ATCCTAAC,-0.0938
12,AGGTAAGG,-0.249
13,ACAAATGA,-0.193
14,AGACTACT,-0.287
15,GATAGGCA,-0.212
16,CAAACTCC,0.434
17,TGAGCTAA,-0.116
18,AGAGACAA,-0.1
19,AACATGGT,-0.225
20,GGAGCTAA,0.24
21,CGCGTGAA,0.0864
22,ATGGTCAG,-0.101
23,GAACTGGA,0.113
24,TATGAAAA,-0.0683
25,AGGATTAA,0.0585

row,Sequence,PBM E-score
1,ATGATTTC,0.124
2,ATCCTGGA,-0.101
3,GGTCCATA,-0.115
4,GTGAAACA,-0.0739
5,CCCCCAGG,-0.25
6,CGTAAAAC,0.0289
7,CGACATTA,0.132
8,GTAGCCTA,-0.355
9,GTAGCGAC,-0.186
10,GCATTGAA,0.0449
11,AGCCAGAC,-0.0281
12,GGCCTAGA,-0.071
13,AGGTAGTC,-0.0355
14,ACTCTGAC,-0.0061
15,ACTCATCG,0.0183
16,GACAGGAC,-0.0707
17,CGTGTCCC,-0.0085
18,GGCCAGGA,-0.107
19,CATCTTTC,-0.251
20,ACACCCAT,-0.0358
21,GCTAACGA,-0.0229
22,AACTTACA,-0.122
23,CATAAATG,-0.232
24,AAATGTCC,0.222
25,AAATTCCC,0.254

row,Sequence,PBM E-score
1,AATGGCGT,-0.0782
2,GCGCTACA,0.023
3,GGGGGATA,-0.0821
4,AAGTAAGA,-0.245
5,AAGGCACG,0.0867
6,ATATAGAT,-0.0849
7,GTCGTGTA,-0.171
8,AACCCACG,-0.19
9,AATCCACA,-0.0935
10,CCGTCAAC,0.117
11,AGGTTGGG,-0.122
12,CACCCCAG,-0.00942
13,TCACCCCA,0.00786
14,AATATCCA,0.0239
15,AGTATGAC,0.0596
16,AAAATGTG,-0.0205
17,CCGTGATA,0.135
18,GAGTGGAC,-0.0604
19,GCGATGAC,0.12
20,ATAGCTGA,-0.185
21,GATTTCCA,0.079
22,AAACCAGG,-0.121
23,ACCCTCAC,-0.216
24,GGAAGATA,0.0872
25,CGCACCTC,0.135

row,Sequence,PBM E-score
1,AAGCTAGA,-0.183
2,CAGTTGCA,-0.154
3,CATGTTAC,-0.196
4,GTAGCAAA,-0.0601
5,TAGCGTCA,-0.195
6,CCATAGCC,-0.101
7,CAGCCCCG,0.326
8,CCGGCCGA,0.415
9,CACTCTTC,-0.0215
10,ATCGGCAT,0.328
11,GTTAATGA,-0.0742
12,CGACAGCC,-0.00437
13,AAGACATC,-0.066
14,CACGCAGG,0.0584
15,CAACCCGG,0.229
16,TGATCAAA,-0.231
17,ATAGTAAA,-0.166
18,GAAATAGC,0.0894
19,AACCGCCA,-0.0604
20,CCAGTCAC,-0.182
21,CTGCGGCA,0.151
22,CGTTACCC,-0.103
23,GACGTACA,-0.116
24,GTTTCAGA,-0.0705
25,ACCCAAGA,-0.149

row,Sequence,PBM E-score
1,AGCGAGCC,0.00731
2,AGAGAGTC,-0.267
3,CCGTCGGC,0.366
4,AAAATTGC,0.049
5,CATCGAGA,-0.202
6,CAATGGTG,-0.248
7,ATGGTTCC,0.145
8,GTGGGAGA,-0.158
9,CGACCGAG,0.0759
10,CAACTTGC,-0.213
11,CGCGCACA,0.135
12,AAAATGTC,0.112
13,AGCTCTGG,-0.245
14,ATGCTAAC,-0.12
15,ACTCCGAC,0.481
16,CCACCTAA,-0.0328
17,AGACCGCT,-0.0752
18,CTCAGAAG,-0.174
19,ACGGGTGG,0.0866
